Laboratory results as given in PubChem BioAssay AID488969 (Vanderbilt High Throughput Screening Facility, 2010).
The full ranking holds about 110,000 compounds; the median of “z-score” is about -0.1, and the highest 2% start at about 2. Some of the results follow. The source made the active and inactive calls.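 Rule for the calls: active = z-score in the third read window above 3 or below -3; inactive = the rest.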

Molecular target: Metabotropic glutamate receptor 8 (Rattus norvegicus) (UniProt P70579)
Experiment: rat mGluR8 modulators via GIRK flux, primary screen, cell-based, thallium flux, HTS (AID 488969)
Conditions: HEK293 rat mGluR8, GIRK (G protein-gated inwardly rectifying potassium channel) thallium flux, FluoZin2; at 10 µM; stronger effect = higher value; submaximal glutamate (EC20) added with thallium

Chain of UniProt P70579 (P70579 whole entry, looked up): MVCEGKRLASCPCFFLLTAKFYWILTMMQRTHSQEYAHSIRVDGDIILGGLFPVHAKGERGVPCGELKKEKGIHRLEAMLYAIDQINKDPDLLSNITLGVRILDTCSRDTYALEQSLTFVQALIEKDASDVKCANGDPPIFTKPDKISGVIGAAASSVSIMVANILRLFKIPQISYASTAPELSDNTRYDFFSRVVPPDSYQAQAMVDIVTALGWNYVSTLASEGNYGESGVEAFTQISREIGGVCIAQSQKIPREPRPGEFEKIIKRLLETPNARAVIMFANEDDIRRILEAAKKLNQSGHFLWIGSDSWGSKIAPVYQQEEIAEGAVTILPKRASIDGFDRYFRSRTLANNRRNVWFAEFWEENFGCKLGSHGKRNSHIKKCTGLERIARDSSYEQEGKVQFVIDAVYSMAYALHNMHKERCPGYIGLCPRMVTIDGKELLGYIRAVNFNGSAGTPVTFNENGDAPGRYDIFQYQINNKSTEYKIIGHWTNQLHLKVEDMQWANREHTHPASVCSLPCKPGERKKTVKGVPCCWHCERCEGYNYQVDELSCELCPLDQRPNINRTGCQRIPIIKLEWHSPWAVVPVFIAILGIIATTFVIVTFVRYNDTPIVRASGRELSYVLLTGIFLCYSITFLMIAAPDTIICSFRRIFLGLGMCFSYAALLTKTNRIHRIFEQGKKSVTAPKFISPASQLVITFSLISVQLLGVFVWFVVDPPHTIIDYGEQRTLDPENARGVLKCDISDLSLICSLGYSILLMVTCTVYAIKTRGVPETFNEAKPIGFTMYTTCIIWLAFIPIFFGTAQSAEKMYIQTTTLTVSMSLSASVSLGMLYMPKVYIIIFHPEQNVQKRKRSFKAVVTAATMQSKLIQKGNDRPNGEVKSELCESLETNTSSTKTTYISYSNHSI

SMILES	z-score
COc1ccc(OC)c(/C=N/NC(=O)CSc2nnc(C)n2-c2ccccc2)c1	-0.183
O=c1cc(N2CCCCC2)nc2n1CCCS2	-0.21
CC1CCc2nn(CC(=O)NC3CCCC3)cc2C1 (stereo not given)	-0.653
CC(C)(C)NC(=O)/C(=C\c1ccc(Br)cc1)NC(=O)c1cccs1	0.12
N#Cc1nc(-c2ccc(Cl)cc2)oc1NCc1cccc2c1OCO2	-0.253
CC(O)CNc1cc(N)c([N+](=O)[O-])cc1[N+](=O)[O-] (stereo not given)	-0.186
O=C(Nc1ccc(Cn2cccn2)cc1)c1ccc(COc2ccc(Br)cc2)cc1	0.105
Cc1ccc(N2CCN(S(=O)(=O)c3ccc(F)cc3)CC2)c(C)c1	0.259
CCONC(=O)Nc1ccccc1	0.0707
O=S(=O)(c1ccc2c(c1)nc1n2CCC1)N1CCOCC1	-0.0595
CCN1CCC(=NNC(=O)c2ccc(C)c([N+](=O)[O-])c2)CC1	-0.488
Cc1ccc(-n2c3c(cc(C(=O)NC4CCSC4=O)c2=O)C(=O)CCC3)cc1 (stereo not given)	0.433
CCC1=NN(C(=O)c2cccnc2)C(O)(C(F)(F)F)C1 (stereo not given)	-0.17
CCOC(=O)c1cn2nc(-c3ccc(OC)cc3)cc2nc1C1CCN(C(=O)OC(C)(C)C)CC1	-0.054
Cc1ccc2nc(-c3cccnc3SCC(=O)N3c4ccccc4CC3C)[nH]c2c1 (stereo not given)	-0.0959
O/N=C/c1cc(Cl)ccc1OCc1ccccc1Cl	-0.352
COC(=O)c1cc(Br)ccc1NC(=O)Nc1ccc(C)cc1	0.037
C=CCSC1=C(C#N)C(c2ccccc2C)CC(=O)N1 (stereo not given)	-1.48
Cc1ccccc1OCC1Cc2c(nc(N)c(C#N)c2N)O1 (stereo not given)	-0.0716
S=c1[nH]nc(CCc2ccc(Cl)cc2)o1	0.169
CCOC(=O)c1ccc(NC2c3ccccc3C(=O)N2c2ccc(C)cn2)cc1 (stereo not given)	-0.173
O=S1(=O)C=C(SCc2ccc(Cl)c(Cl)c2)Nc2ccccc21	-0.446

SMILES	z-score
COc1ccc2nc(NC(=O)CSC3=NCCS3)sc2c1	-0.0786
CC(C)Oc1ccc(/C(O)=C2/C(=O)C(=O)N(CCCn3ccnc3)C2c2cccnc2)cc1 (stereo not given)	-0.0218
CCCC(=O)Nc1ccccc1NC(C)=O	0.269
COC(=O)CNC(=O)COC(=O)c1cc(Cl)cc(Cl)c1N	-0.185
CCC(=O)N/C(=N\OCc1ccc(F)cc1)c1nonc1NC(=O)CC	-0.064
COc1ccc(CCNC(=O)c2cnc3n(c2=O)CCS3)cc1OC	-0.349
Cc1cc(C)n(-c2nc(C)nc3sc4c(c23)CCC(C)C4)n1 (stereo not given)	-1.29
CNC(=S)SCCOc1ccccc1C	0.297
CC(C)(C)C(=O)/C=c1\[nH]c(=O)/c(=C\c2ccc(F)cc2)s1	active: 5.06
CCOc1c2ccc(C(=O)NCCc3cccs3)cc2nn1CC	-0.0309
O=C(Nc1cccc(-c2nnc(-c3ccccc3)o2)c1)c1ccc(Br)o1	-0.452
Cc1c(NC(=S)NC(=O)C(C)(C)C)c(=O)n(-c2ccccc2)n1C	-0.0749
CCC(C)NCC(=O)Nc1sc2c(c1C(N)=O)CCC2 (stereo not given)	-0.174
CCCCN(C(=O)NC(=O)Nc1cccc(C)c1C)S(C)(=O)=O	-0.937
O=C(Nc1ccccc1C(=O)N1CCCC1)c1ccccc1	-0.138
COC(=O)C1=C(C)N(c2ccc(Br)cc2)C(=O)/C1=C\c1ccco1	-1.49
Cc1ccc(NC(=O)CCC(=O)OCCCC(F)(F)C(F)(F)F)cc1	1.25
CCOC(=O)C1CCCN(c2cc(=O)n(Cc3ccc(F)cc3)c(=O)[nH]2)C1 (stereo not given)	-0.303
COc1ccccc1N(C)S(=O)(=O)c1ccc(C(=O)NC(C)(C)C)cc1	-0.0357
CCn1cc(C(C)(C)C)c(C#N)c1NC(C)=O	-0.224
CC(=O)C1=C(C)NC(C)=C(C(C)=O)C1c1ccc(-c2ccccc2Cl)o1	0.666
COC(=O)c1ccccc1NC(=O)CSCC(=O)Nc1ccc(F)cc1	-0.231

SMILES	z-score
Cc1ccccc1CN1CCc2c(OCC(=O)N3CCCc4ccccc43)cccc2C1=O	-0.196
COc1ccc([N+](=O)[O-])cc1NC(=O)c1ccc(N(Cc2ccccc2Cl)S(C)(=O)=O)cc1	-0.345
CCOc1cc(C(=O)N2CCN(c3ccc(C(C)=O)cc3)CC2)cc(OCC)c1OCC	-0.202
O=C(NCCCn1ccnc1)Nc1ccc(Cl)cc1Cl	-0.326
CC(C)(C)NCc1cc2ccccc2[nH]c1=O	-0.0486
Cn1sc(NC(=O)c2ccccc2)nc1=O	0.0165
Cc1n[nH]c(=S)c2nn(-c3cccc(Cl)c3)c(C)c12	-0.0685
Cc1cccc(NC(=O)Cn2nc(C(F)(F)F)cc2C2CC2)c1	0.623
CCn1c(O)c(N=NC(=O)CNC(=O)c2ccco2)c2ccccc21	-0.152
CN(C(=O)CSc1nnc(-c2n[nH]c3ccccc23)o1)c1ccccc1	-0.571
COc1ccc(/C=N/n2c(SC)nnc(C(C)(C)C)c2=O)cc1OC	-0.221
Cn1c(=O)n(C)c2cc(C(N)=O)ccc21	0.035
CCOc1cccc(NC(=O)CC#N)c1	-0.393
CCN(CC)C(=O)c1sc(NC(=O)c2cc(-c3ccc(C)s3)nc3ccccc23)c(C(=O)OC)c1C	-0.353
Cc1ccc(C2CC(c3ccccc3)=NN2C(=S)Nc2ccccc2)o1 (stereo not given)	-0.213
CCN(CC)c1ccc2cc(-c3nc4ccccc4[nH]3)c(=O)oc2c1	-2.63
O=C(CSCc1ccccc1)Nc1ccc(Cl)cn1	-0.435
Cc1ccccc1CSc1nnc(-c2ccccn2)n1N	0.509
Cc1ccccc1-n1nc(C)c2cc(C(=O)NC3CC3)sc21	-1.81
CCc1cc(=O)oc2cc(OCC(N)=O)c(Cl)cc12	0.0423
CCn1c(SCC(=O)Nc2oc(-c3ccccc3)c(-c3ccccc3)c2C#N)nnc1-c1ccncc1	-0.814
CCOC(=O)N1CCC(N2CC34C=CC(O3)C(C(=O)Nc3ccc(C(C)C)cc3)C4C2=O)CC1 (stereo not given)	-0.264

SMILES	z-score
N#Cc1ccc(OCCN2C(=O)NC3(CCSC3)C2=O)cc1 (stereo not given)	-0.566
NNC(=O)CCc1c[nH]c2ccccc12	-0.11
COc1ccc(N2CCN(S(=O)(=O)c3cccc(C(F)(F)F)c3)CC2)cc1	-0.0298
O=C(/C=C/c1ccccc1)NCCSc1ccc(Cl)cc1	-0.183
Fc1ccc(-c2cc(C(F)(F)F)nc(N3CCCCC3)n2)cc1	-0.211
COc1ccc(CC(NC(C)=O)C(=O)NC2CCN(C(=O)c3cnccn3)CC2)cc1 (stereo not given)	-0.00175
Cc1cc(-c2nnc(SCC(=O)Nc3ccccc3C(F)(F)F)o2)c(C)n1-c1ccccc1	-0.307
CC(=O)c1ccc2c(c1)Cc1cc(C(C)=O)ccc1-2	-0.184
COC(=O)c1sc(N)c(C(=O)OC)c1CSc1nc2sc3c(c2c(=O)n1C)CCC3	-0.0976
CCn1c(CCNC(=O)c2ccc(C)cc2)nnc1SCc1ccc(Cl)c(Cl)c1	-0.659
CC(C)n1cc(/C=C2/NC(=O)N(c3cccc(Cl)c3)C2=O)c2ccccc21	-0.205
COc1ccc(C2Nc3ccccc3C(=O)N2Cc2ccco2)cc1COc1ccccc1F (stereo not given)	-0.629
Cc1occc1C(=O)N1CCN(Cc2ccccc2)CC1	-0.362
Cc1ccc(N2C(=O)[C@@H]3[C@H](C2=O)[C@H]2C=CC=NN2[C@@H]3C(=O)Nc2ccc(Cl)cc2)cc1	0.257
CCc1ccccc1N(CC(=O)O)S(C)(=O)=O	0.424
Cc1ccoc1C(=O)NCCNc1ccc(Cl)cc1[N+](=O)[O-]	-0.511
COC(=O)c1ccc(N2CCN(CC(=O)c3ccc(-c4ccccc4)cc3)CC2)c([N+](=O)[O-])c1	-0.117
CCn1c(SCC(=O)Nc2ccc3c(c2)OCCO3)nc2c(c1=O)SC(C)C2 (stereo not given)	-1.51
O=C(NCc1cccs1)c1cccc(Nc2nc3ccc(Br)cc3[nH]2)c1	-0.408
CC(=O)c1ccc(NC(=O)Nc2ccc([N+](=O)[O-])cc2)cc1	-0.178
CCOC(=O)c1nn(-c2ccc(C)cc2)cc1C(=O)c1ccccc1	-0.509
O=C(c1cccs1)N1CCN(CCc2ccccc2)CC1	-0.113

SMILES	z-score
COc1ccccc1NC(=O)c1ccc(C)s1	-0.701
O=S(=O)(NC1CCCCCCC1)c1cccs1	-0.409
CSc1nncn1/N=C/c1ccc2c(c1)OCO2	0.0246
CCc1ccc(N(C(=O)c2snc(C(N)=O)c2N)C(C(=O)NCCC(C)C)c2c[nH]c3ccccc23)cc1 (stereo not given)	-0.259
CCOC(=O)C1=C(C)N(CCO)C(=O)NC1c1cccc(O)c1 (stereo not given)	-0.0476
COc1ccc(-c2nnc(SCC(=O)N3CCCc4ccccc43)o2)cc1OC	0.39
CCN(Cc1ccccc1)C(c1cccs1)c1nnnn1C1CCCCC1 (stereo not given)	0.834
Cc1cc(O)ccc1N/C=C(\C#N)c1nc2ccccc2o1	-0.0117
Cc1c(-c2nc(N)nc(Nc3ccccc3F)n2)oc2ccccc12	0.89
CCOC(=O)C1=C(C)N(CC(C)C)C(=O)/C1=C\c1ccc(OCC(=O)Nc2ccccc2)cc1	0.0387
Cc1nc(Nc2ccc(S(=O)(=O)N3CCCCC3C)cc2)c2nnn(Cc3ccccc3)c2n1 (stereo not given)	-0.315
Cc1ccc(NC(=O)CN2CCC(NC(=O)C3CCCCC3)CC2)c(Br)c1	0.731
O=C(c1ccco1)N1CCN(C(=O)C2CC(c3ccc(Cl)c(Cl)c3)=NO2)CC1 (stereo not given)	-0.694
N/C(=N\OC(=O)COc1ccccc1Cl)c1ccccn1	1.57
Cc1ccc(SCc2[nH]nc3c2C2(C(=O)Nc4ccc([N+](=O)[O-])cc42)C(C#N)=C(N)O3)cc1 (stereo not given)	-0.0673
CCN(CC)S(=O)(=O)c1ccc(C(=O)NCC(c2cccs2)N2CCOCC2)cc1 (stereo not given)	-0.225
COc1ccccc1NC(=O)CSc1nnc(-c2ccco2)n1Cc1ccco1	-1.03
C=CCn1c2ccccc2c2nnc(SCc3[nH]c(=O)[nH]c3C(=O)CCCCC(=O)OCC)nc21	-0.696
CC(C)CNC(=O)c1cccc(NC(=O)c2ccc(NC(=O)c3ccco3)cc2)c1	-0.0461
Oc1ccc(CN2CCCCC2)c2cccnc12	0.233
CCN(CC)c1ccc(NC(=O)c2cc(Cl)ccc2OC)cc1	-0.108
N#CC(=C1CCCC1)c1nc(-c2ccccc2)cs1	0.00712
